# Hit rate of the full screen: of about 360,000 compounds, about 16,000 (4.4%) were called active. Inconclusive results, whose numbers are uncertain, are shown with a selection of clear calls. Calls come from the whole dose curve; as a rule, active = well fitted inhibition curve with a large enough effect; inconclusive = small, poorly fitted or top-dose-only effect; inactive = no such curve, though single readings can be large or run the other way. A potency beside an inconclusive call is a rough fit, not a confirmed value.
# Target: Bromodomain adjacent to zinc finger domain protein 2B (Homo sapiens) (UniProt Q9UIF8)
# Assay: qHTS Assay for Inhibitors of BAZ2B; note: nearly all actives have a fitted effect of over 60% in size
# Conditions: AlphaScreen BAZ2B-H3K14Ac peptide displacement; series mostly up to 114 µM
# Procedure, shortened: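 AlphaScreen displacement: compounds (up to 110uM) incubated 30 min at room temperature with a preformed 50 nM BAZ2B/50 nM biotinylated H3K14Ac peptide complex in PBS pH 7.4 with Tween-20. Donor and acceptor beads at 10 ug/mL final added, 20 min light-protected before reading.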
# Potency is the fitted concentration of half-maximal effect; tags give direction and shape of the fitted curve.
# UniProt Q9UIF8, sequence (Q9UIF8 whole entry, looked up, the tested form may be a part): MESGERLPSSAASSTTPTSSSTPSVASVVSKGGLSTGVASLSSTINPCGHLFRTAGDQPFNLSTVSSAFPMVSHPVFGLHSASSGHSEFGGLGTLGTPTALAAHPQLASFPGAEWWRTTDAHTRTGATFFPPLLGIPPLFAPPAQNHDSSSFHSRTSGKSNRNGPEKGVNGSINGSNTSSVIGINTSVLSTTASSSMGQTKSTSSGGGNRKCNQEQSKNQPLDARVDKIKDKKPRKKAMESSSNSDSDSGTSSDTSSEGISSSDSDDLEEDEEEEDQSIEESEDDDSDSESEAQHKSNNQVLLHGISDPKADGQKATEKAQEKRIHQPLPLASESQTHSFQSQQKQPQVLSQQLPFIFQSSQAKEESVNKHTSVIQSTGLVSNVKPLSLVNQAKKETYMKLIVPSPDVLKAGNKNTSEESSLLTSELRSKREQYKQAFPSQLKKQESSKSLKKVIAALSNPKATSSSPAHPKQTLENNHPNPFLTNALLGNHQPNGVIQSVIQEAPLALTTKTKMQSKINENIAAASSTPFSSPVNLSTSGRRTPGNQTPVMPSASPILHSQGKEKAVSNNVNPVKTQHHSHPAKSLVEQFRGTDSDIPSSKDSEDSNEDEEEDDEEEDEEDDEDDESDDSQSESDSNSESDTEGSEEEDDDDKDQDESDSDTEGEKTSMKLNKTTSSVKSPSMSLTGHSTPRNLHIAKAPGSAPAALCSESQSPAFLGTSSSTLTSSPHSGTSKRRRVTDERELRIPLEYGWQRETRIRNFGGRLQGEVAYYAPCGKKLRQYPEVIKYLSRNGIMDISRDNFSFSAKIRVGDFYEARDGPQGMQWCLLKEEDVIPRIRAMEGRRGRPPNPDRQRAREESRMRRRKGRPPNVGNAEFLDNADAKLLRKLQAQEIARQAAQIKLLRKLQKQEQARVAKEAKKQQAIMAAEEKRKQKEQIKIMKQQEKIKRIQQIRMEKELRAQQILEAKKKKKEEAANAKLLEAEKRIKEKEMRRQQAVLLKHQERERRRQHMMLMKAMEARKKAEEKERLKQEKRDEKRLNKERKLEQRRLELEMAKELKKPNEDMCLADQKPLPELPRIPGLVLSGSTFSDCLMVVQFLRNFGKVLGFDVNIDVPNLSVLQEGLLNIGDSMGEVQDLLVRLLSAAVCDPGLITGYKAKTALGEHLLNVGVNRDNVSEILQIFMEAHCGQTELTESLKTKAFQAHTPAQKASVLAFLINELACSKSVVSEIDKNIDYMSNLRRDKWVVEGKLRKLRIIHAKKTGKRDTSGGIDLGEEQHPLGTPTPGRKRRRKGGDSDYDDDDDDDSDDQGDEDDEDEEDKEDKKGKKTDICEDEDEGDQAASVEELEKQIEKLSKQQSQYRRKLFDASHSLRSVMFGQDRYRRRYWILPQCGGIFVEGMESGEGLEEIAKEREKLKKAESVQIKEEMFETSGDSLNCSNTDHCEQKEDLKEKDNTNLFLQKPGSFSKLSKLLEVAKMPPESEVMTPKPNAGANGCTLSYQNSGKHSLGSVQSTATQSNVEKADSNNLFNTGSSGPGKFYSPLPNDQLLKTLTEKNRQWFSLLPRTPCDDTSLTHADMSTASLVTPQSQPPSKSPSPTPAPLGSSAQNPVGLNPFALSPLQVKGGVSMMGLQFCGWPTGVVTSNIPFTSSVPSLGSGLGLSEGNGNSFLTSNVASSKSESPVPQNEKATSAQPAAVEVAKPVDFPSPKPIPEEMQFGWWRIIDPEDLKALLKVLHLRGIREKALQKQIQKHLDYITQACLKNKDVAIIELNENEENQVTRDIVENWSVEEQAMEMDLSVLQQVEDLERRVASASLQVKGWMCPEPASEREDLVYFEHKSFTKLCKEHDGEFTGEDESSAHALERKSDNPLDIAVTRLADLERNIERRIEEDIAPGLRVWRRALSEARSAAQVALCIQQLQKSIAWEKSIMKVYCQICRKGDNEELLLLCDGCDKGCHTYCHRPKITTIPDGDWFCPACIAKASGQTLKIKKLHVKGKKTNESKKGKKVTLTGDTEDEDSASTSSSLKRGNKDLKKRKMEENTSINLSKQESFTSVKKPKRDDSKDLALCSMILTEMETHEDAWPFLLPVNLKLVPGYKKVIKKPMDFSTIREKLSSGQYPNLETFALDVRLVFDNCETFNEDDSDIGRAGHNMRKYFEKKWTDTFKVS
row,SMILES,Potency
1,CN(C)c1ccc(C(CNC(=O)c2ccccc2F)c2c[nH]c3ccccc23)cc1 (stereo not drawn),"inconclusive: 11.2 µM [inhibitor, full curve, poor fit]"
2,COc1ccc(S(=O)(=O)N2CCOCC2)cc1NC(=O)COc1cccnc1[N+](=O)[O-],"inconclusive: 89.1 µM [inhibitor, single point]"
3,CCOC(=O)c1c(-c2ccc(-c3ccccc3)cc2)csc1NC(=O)CNCCN(C)C,"inconclusive: 22.4 µM [inhibitor, full curve]"
4,COc1ccc(-c2nc3scc(CCNC(=O)c4cccc(Br)c4)n3n2)cc1,inactive
5,Cc1cc(-c2ccc(S(=O)(=O)N3CCN(c4ccc(Cl)cc4)CC3)s2)on1,inactive
6,COc1ccc(C(=O)CCNc2ccc3c(c2)OCCO3)cc1,inactive
7,Cc1ccc(-c2nc3ccsc3c(=O)[nH]2)cc1,"inconclusive: 100 µM [inhibitor, partial curve, poor fit]"
8,Cc1cc([N+](=O)[O-])ccc1NCc1ccc2ccccc2c1,"inconclusive: 70.8 µM [inhibitor, single point]"
9,O=C(COC(=O)c1ccccc1Sc1ccc(C(F)(F)F)cc1[N+](=O)[O-])NC(=O)NC1CCCC1,"inconclusive: 44.7 µM [inhibitor, partial curve]"
10,Cc1ccc(S(=O)(=O)NNc2nc3ccccc3nc2C(F)(F)F)cc1,active: 44.7 µM
11,COCCCNC(=O)C(C#N)c1nc2ccccc2nc1N1CCCC1 (stereo not drawn),"inconclusive: 44.7 µM [inhibitor, partial curve]"
12,N#CCC(=O)Nc1ccc(C(=O)NCC(c2ccco2)N2CCCCC2)cc1 (stereo not drawn),"inconclusive: 79.4 µM [inhibitor, single point]"
13,COc1cccc2cc(C(C)N(CCCN3CCOCC3)C(=S)Nc3cccc(C)c3)oc12 (stereo not drawn),"inconclusive: 56.2 µM [inhibitor, partial curve]"
14,CC(=O)c1ccc(N2CCN(S(=O)(=O)c3cc(-c4noc(C)n4)ccc3C)CC2)cc1,"inconclusive: 89.1 µM [inhibitor, single point]"
15,COc1ccc(N2CCN(C(=O)c3ccc(CNS(=O)(=O)c4cc(C)ccc4C)cc3)CC2)cc1,"inconclusive: 28.2 µM [inhibitor, partial curve]"
16,CN(CC(=O)Nc1cccc(F)c1)C(=O)c1ccc(OCC2CCCO2)cc1 (stereo not drawn),"inconclusive: 89.1 µM [inhibitor, single point]"
17,COc1ccc(/C=C2/CC/C(=C\c3ccc(OC)c(OC)c3OC)C2=O)c(OC)c1OC,"inconclusive: 7.94 µM [inhibitor, full curve]"
18,CC1CCCCC1NS(=O)(=O)c1ccc(S(=O)(=O)NCc2ccncc2)cc1 (stereo not drawn),"inconclusive: 79.4 µM [inhibitor, single point]"
19,COc1ccc(C(=O)NC(=S)NCc2ccco2)cc1,"inconclusive: 70.8 µM [inhibitor, single point]"
20,Cc1ccc2nc(C)cc(C(=O)OCC(=O)c3ccc(Cl)c([N+](=O)[O-])c3)c2c1,"inconclusive: 79.4 µM [inhibitor, partial curve, poor fit]"
21,COc1ccccc1C1=NNC(=Nc2cccc(S(=O)(=O)N(C)C)c2)SC1,"inconclusive: 79.4 µM [inhibitor, single point]"

row,SMILES,Potency
1,COc1ccc(NC(=O)CN(C)C(=O)c2cccc(S(=O)(=O)N3CCN(Cc4ccccc4)CC3)c2)cc1,"inconclusive: 79.4 µM [inhibitor, single point]"
2,COc1ccccc1NS(=O)(=O)c1ccc(O)c(C(=O)OCC(=O)N2CCc3ccccc32)c1,"inconclusive: 70.8 µM [inhibitor, partial curve]"
3,O=C(CSc1nnc(-c2ccc(OC(F)F)cc2)o1)NC(=O)NCc1ccco1,active: 50.1 µM
4,COc1ccc(/C(C)=N/OCC(=O)Nc2nc3ccccc3s2)cc1OC,"inconclusive: 70.8 µM [inhibitor, single point]"
5,CCOc1ccc(/C=N/NC(=O)c2cc3c(OC)cccc3[nH]2)cc1,"inconclusive: 56.2 µM [inhibitor, partial curve]"
6,COc1ccc(S(=O)(=O)Nc2cc3c(cc2NCc2ccccc2)n(C)c(=O)n3C)cc1OC,active: 50.1 µM
7,Cc1c(-c2cc(Br)ccc2O)nc2cc3c(cc2c1C)OCO3,inactive
8,Cc1ccc(N2CCN(C(=S)c3ccc(N(C)C)cc3)CC2)cc1,active: 12.6 µM
9,CC(C)[C@@H](N)C(=O)N/N=C/c1ccc2nccnc2c1,"inconclusive: 89.1 µM [inhibitor, single point]"
10,Cc1cc(C)cc(NC(=O)CN2CCN(c3ncccn3)CC2)c1,"inconclusive: 89.1 µM [inhibitor, single point]"
11,Cc1ccc(NC(=O)CSc2nc3c([nH]c4ccccc43)c(=O)n2-c2ccccc2)c(C)c1,inactive
12,COc1ccc(N2CCN(CCCNC(=O)C3CCN(S(=O)(=O)N4CCOCC4)CC3)CC2)cc1,"inconclusive: 70.8 µM [inhibitor, partial curve]"
13,Cc1cc2cc(CN(CCCO)S(=O)(=O)c3cccc4nsnc34)c(=O)[nH]c2cc1C,"inconclusive: 79.4 µM [inhibitor, single point]"
14,C=CCNC(=O)CSc1nc2sc3c(c2c(=O)n1CCCOC)CCC3,"inconclusive: 79.4 µM [inhibitor, single point]"
15,CCCCN1CCc2nc(N3CCN(c4ncccn4)CC3)ncc2C1,active: 56.2 µM
16,COc1ccc(/C=C(\C#N)c2n[nH]c(Cn3cncn3)n2)cc1,"inconclusive: 79.4 µM [inhibitor, single point]"
17,O=C1c2cccc3c([N+](=O)[O-])c(O)cc(c23)C(=O)N1Nc1ccccc1,"inconclusive: 50.1 µM [inhibitor, partial curve]"
18,COc1ccc(CNC(=O)C[C@H]2C(=O)N(CCc3ccccc3)C[C@@H]2Cc2ccccc2)cc1,inactive
19,CC(=O)c1ccc(NC(=O)NNS(=O)(=O)c2ccc([N+](=O)[O-])cc2)cc1,"inconclusive: 50.1 µM [inhibitor, partial curve]"
20,COc1ccc(CNCc2cccc3ccccc23)cc1,"inconclusive: 44.7 µM [inhibitor, partial curve]"
21,CCCCCOC(=O)c1ccc(NC(=O)c2cccc(NC(=O)c3ccccc3C(=O)O)c2)cc1,"inconclusive: 89.1 µM [inhibitor, single point]"

row,SMILES,Potency
1,CCCCN1C(=O)C2(NNc3ccccc3O2)c2ccccc21 (stereo not drawn),active: 44.7 µM
2,CCOC(=O)C1=C(C)N=c2s/c(=C\c3cc(OC)c(OC)c(OC)c3)c(=O)n2C1/C=C/c1ccccc1 (stereo not drawn),inactive
3,Cc1[nH]n(-c2nc(-c3ccccc3)cc(=O)[nH]2)c(=O)c1CCO,"inconclusive: 3.16 µM [inhibitor, full curve]"
4,CC1CCN(c2nc(N(C)c3ccccc3)nc(N)c2[N+](=O)[O-])CC1,"inconclusive: 35.5 µM [inhibitor, partial curve]"
5,CC1CC1c1ccc(/C=C(\C#N)C(=O)Nc2ccc(Cl)cc2)o1 (stereo not drawn),"inconclusive: 79.4 µM [inhibitor, single point]"
6,O=C(O)CCC(=O)N1CCc2cc(S(=O)(=O)N3CC=C(c4ccccc4)CC3)ccc21,"inconclusive: 89.1 µM [inhibitor, single point]"
7,COc1ccccc1N1CCN(CC(O)COc2cc(C)cc(C)c2)CC1 (stereo not drawn),"inconclusive: 79.4 µM [inhibitor, single point]"
8,CCCn1c(C(C)Nc2nc(-c3ccc(C)cc3)cs2)nc2cc(Cl)c(N3CCCCC3)cc21 (stereo not drawn),"inconclusive: 50.1 µM [inhibitor, partial curve]"
9,CCCCNC(=O)c1onc(CSc2ccccc2C)c1C(=O)O,"inconclusive: 89.1 µM [inhibitor, single point]"
10,COc1ccc(C2=NN(CC(=O)NCCCN(C)c3ccccc3)C(=O)CC2)cc1,"inconclusive: 44.7 µM [inhibitor, partial curve]"
11,COc1cccc(-c2ccc(NC(=O)C3CCCN(Cc4cnc(N(C)C)s4)C3)cc2)c1 (stereo not drawn),"inconclusive: 44.7 µM [inhibitor, partial curve]"
12,CCOc1ccccc1N1CCN(C(=O)c2ccc(-c3ccc(OC(C)=O)cc3)cc2)CC1,"inconclusive: 79.4 µM [inhibitor, single point]"
13,O=C(COc1ccc2c(c1)oc(=O)c1ccccc12)N[C@@H](Cc1c[nH]c2ccccc12)C(=O)O,"inconclusive: 89.1 µM [inhibitor, single point]"
14,CC1CCCN(C(=O)CCS(=O)(=O)c2ccc3c(c2)n(C)c(=O)c(=O)n3C)C1 (stereo not drawn),inactive
15,COc1ccccc1NC(=O)Cc1coc2cc(C)ccc12,"inconclusive: 12.6 µM [inhibitor, single point]"
16,CCOC(=O)c1ccc(NC(=O)CCc2c(C)nc3nc[nH]n3c2=O)cc1,active: 56.2 µM
17,COc1cccc(-n2c(=S)sc3c(=O)n(-c4ccccc4OC)c(SCC4OCCO4)nc32)c1,"inconclusive: 7.08 µM [inhibitor, full curve]"
18,O=C(O)c1cc(-c2ccc(/C=N/N3C(=O)C4C5C=CC(C6CC56)C4C3=O)o2)ccc1Cl (stereo not drawn),active: 79.4 µM
19,CCOC(=O)C1(C)/C(=N/Nc2ccccc2)C(=O)C(=O)N1c1ccccc1 (stereo not drawn),"inconclusive: 89.1 µM [inhibitor, single point]"
20,O=C(O)CCCCCCCCCCCc1ccccc1,"inconclusive: 100 µM [inhibitor, single point]"
21,Cc1ccc2oc(=O)c(/C=C(\O)C(C)(C)C)nc2c1,"inconclusive: 89.1 µM [inhibitor, single point]"

# From PubChem BioAssay AID504333 (National Center for Advancing Translational Sciences (NCATS), 2011)
